Experiment [1] addresses T1, UNC93B1-WT, C-terminal eGFP tag (3d iMac cells) (mouse) (UniProt Q8VCW4).
T1 sequence: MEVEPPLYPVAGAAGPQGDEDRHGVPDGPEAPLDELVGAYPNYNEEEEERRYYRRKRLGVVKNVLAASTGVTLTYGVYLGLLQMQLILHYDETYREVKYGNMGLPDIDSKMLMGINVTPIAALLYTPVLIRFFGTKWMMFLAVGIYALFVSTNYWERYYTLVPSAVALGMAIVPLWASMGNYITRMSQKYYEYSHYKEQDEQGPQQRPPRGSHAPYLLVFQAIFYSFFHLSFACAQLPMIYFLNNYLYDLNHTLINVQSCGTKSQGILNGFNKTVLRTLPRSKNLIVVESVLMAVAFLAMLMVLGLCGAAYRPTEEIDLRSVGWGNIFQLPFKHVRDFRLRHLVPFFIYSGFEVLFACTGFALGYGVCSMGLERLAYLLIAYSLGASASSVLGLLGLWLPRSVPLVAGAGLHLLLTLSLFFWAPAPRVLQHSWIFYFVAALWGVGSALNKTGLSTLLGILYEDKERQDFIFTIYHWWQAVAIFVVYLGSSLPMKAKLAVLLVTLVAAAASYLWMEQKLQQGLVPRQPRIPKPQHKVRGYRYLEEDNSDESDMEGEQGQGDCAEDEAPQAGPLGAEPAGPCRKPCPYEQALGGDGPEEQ
The experiment can be described thus: co-IP; GFP-tagged UNC93B1 immunoprecipitated from 3d iMac cells expressing TLR7-HA; immunoblot with anti-HA and anti-GFP.

Experiment [2] has as its target T2, TLR9-HA, full-length forms (ER and Golgi-modified precursor) (UniProt Q9EQU3).
T2 sequence: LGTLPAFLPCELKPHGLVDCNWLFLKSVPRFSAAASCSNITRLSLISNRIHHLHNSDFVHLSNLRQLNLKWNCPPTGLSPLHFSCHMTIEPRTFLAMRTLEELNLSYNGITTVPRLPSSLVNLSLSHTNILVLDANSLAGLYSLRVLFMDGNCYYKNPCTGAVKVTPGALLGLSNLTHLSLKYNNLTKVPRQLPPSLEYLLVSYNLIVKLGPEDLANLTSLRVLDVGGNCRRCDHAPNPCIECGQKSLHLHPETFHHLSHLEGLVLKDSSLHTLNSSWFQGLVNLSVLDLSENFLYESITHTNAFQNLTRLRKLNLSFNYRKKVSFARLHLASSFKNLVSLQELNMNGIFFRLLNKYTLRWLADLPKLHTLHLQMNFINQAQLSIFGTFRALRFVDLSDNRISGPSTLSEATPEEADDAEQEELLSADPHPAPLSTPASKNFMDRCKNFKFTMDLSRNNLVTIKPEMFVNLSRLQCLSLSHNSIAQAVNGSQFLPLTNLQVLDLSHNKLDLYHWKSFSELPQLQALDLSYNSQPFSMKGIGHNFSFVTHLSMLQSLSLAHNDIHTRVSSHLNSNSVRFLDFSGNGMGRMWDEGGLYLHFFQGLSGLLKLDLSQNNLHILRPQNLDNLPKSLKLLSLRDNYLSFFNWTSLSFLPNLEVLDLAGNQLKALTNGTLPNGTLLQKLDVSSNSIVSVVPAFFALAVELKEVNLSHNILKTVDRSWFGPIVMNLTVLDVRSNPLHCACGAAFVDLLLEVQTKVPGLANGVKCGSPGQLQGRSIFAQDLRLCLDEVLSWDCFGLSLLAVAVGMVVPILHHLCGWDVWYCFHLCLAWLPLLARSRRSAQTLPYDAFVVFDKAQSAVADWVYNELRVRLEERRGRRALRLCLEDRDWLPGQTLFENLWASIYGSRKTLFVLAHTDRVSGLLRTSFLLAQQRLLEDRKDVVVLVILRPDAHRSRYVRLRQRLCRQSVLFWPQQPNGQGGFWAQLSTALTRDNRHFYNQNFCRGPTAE
The experiment can be described thus: co-IP; 3d iMac cells expressing TLR9-HA, TLR7-V5-His and WT UNC93B1-GFP lysed in TNT buffer, incubated with anti-HA matrix or anti-V5 protein A/G beads; immunoblot with HA, GFP and V5 antibodies. On the technique in general: In western blotting, separated proteins are transferred to a membrane and probed.

Experiment [3] has as its target T3, UNC93B1-WT, C-terminal 3x FLAG tag (3d iMac cells) (mouse) (UniProt Q8VCW4).
T3 sequence: T1 sequence
The experiment is described as follows: co-IP; FLAG tagged UNC93B1 precipitated with anti-FLAG matrix from 3d iMac cells expressing TLR9-HA, 1% digitonin; immunoblot with anti-FLAG and anti-HA.

These are yes or no findings as the source states them, for the method shown. Binding seen in cells or lysates may run through a third protein. Some binding calls cover weakened binding; strength is not graded here. Where a sequence is shown, tags or fusion partners need not be part of it.

B1: TLR7-HA, full-length form (receptor, UniProt P58681 27-1050)
chain: FRWFPKTLPCEVKVNIPEAHVIVDCTDKHLTEIPEGIPTNTTNLTLTINHIPSISPDSFRRLNHLEEIDLRCNCVPVLLGSKANVCTKRLQIRPGSFSGLSDLKALYLDGNQLLEIPQDLPSSLHLLSLEANNIFSITKENLTELVNIETLYLGQNCYYRNPCNVSYSIEKDAFLVMRNLKVLSLKDNNVTAVPTTLPPNLLELYLYNNIIKKIQENDFNNLNELQVLDLSGNCPRCYNVPYPCTPCENNSPLQIHDNAFNSLTELKVLRLHSNSLQHVPPTWFKNMRNLQELDLSQNYLAREIEEAKFLHFLPNLVELDFSFNYELQVYHASITLPHSLSSLENLKILRVKGYVFKELKNSSLSVLHKLPRLEVLDLGTNFIKIADLNIFKHFENLKLIDLSVNKISPSEESREVGFCPNAQTSVDRHGPQVLEALHYFRYDEYARSCRFKNKEPPSFLPLNADCHIYGQTLDLSRNNIFFIKPSDFQHLSFLKCLNLSGNTIGQTLNGSELWPLRELRYLDFSNNRLDLLYSTAFEELQSLEVLDLSSNSHYFQAEGITHMLNFTKKLRLLDKLMMNDNDISTSASRTMESDSLRILEFRGNHLDVLWRAGDNRYLDFFKNLFNLEVLDISRNSLNSLPPEVFEGMPPNLKNLSLAKNGLKSFFWDRLQLLKHLEILDLSHNQLTKVPERLANCSKSLTTLILKHNQIRQLTKYFLEDALQLRYLDISSNKIQVIQKTSFPENVLNNLEMLVLHHNRFLCNCDAVWFVWWVNHTDVTIPYLATDVTCVGPGAHKGQSVISLDLYTCELDLTNLILFSVSISSVLFLMVVMTTSHLFFWDMWYIYYFWKAKIKGYQHLQSMESCYDAFIVYDTKNSAVTEWVLQELVAKLEDPREKHFNLCLEERDWLPGQPVLENLSQSIQLSKKTVFVMTQKYAKTESFKMAFYLSHQRLLDEKVDVIILIFLEKPLQKSKFLQLRKRLCRSSVLEWPANPQAHPYFWQCLKNALTTDNHVAYSQMFKETV
With B1, the binding entry in experiment [1] is “binds”.

B2: TLR7-V5-His (receptor, UniProt P58681 27-1050)
chain: B1 chain
As for B2, in experiment [2], the binding entry is “no binding”.

B3: TLR9-HA, full-length forms (ER and Golgi-modified precursor) (receptor, UniProt Q9EQU3 26-1032)
chain: T2 sequence
B3: the binding result in experiment [3] is “binds”.

The values are drawn from publication PMC3576711.
